Measured values as given in PubChem BioAssay AID504706 (National Center for Advancing Translational Sciences (NCATS), 2011).
About 200 (0.062%) of roughly 320,000 compounds were called active. This list was built around the results that the source calls inconclusive (neither active nor inactive); the mix of calls is not that of the screen. Calls follow the shape of the dose curve; as a rule, active = well fitted activation curve with a large enough effect; inconclusive = small, poorly fitted or top-dose-only effect; inactive = no such curve, though single readings can be large or run the other way. Potencies of inconclusive entries are left out as doubtful fits.

assay: qHTS assay for re-activators of p53 using a Luc reporter; conditions: H1299 p53-A138V BP100-luciferase reporter, luminescence, 24 h; series mostly up to 92.2 µM; also: nearly all actives have a fitted effect of over 45% in size
In short: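 p53-null H1299 cells stably carrying temperature-sensitive p53-A138V and a BP100-luciferase reporter were pinned with compounds (4-point, 1:5 series) and held 24 hrs at 37 deg C. Luminescence was read 10 min after detection reagent.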
Potency is read from the fitted curve at half-maximal effect; tags tell the direction and shape of the fitted curve.

SMILES | Potency
CCOc1cc(C2NN=C(c3ccccc3)S2)ccc1OCc1ccc(F)cc1 (stereo not given) | inconclusive [activator, partial curve, poor fit]
O=C1c2ccccc2C(=O)N1CCCOc1ccccc1 | inconclusive [activator, partial curve, poor fit]
CC1CCCN(c2ncnc3c2cnn3-c2ccccc2)C1 (stereo not given) | inactive
Cc1ccc(-c2cn(-c3ccccc3)c(=S)[nH]2)cc1C | inconclusive [activator, full curve, poor fit]
COc1ccc(CCn2c(-c3ccc(C(C)(C)C)cc3)n[nH]c2=S)cc1OC | inactive
O=C(CSC1=NCCS1)Nc1nc2c(s1)CCCC2 | inconclusive [activator, full curve, poor fit]
N#C/C(=C/c1cccs1)c1nc2ccccc2[nH]1 | inconclusive [activator, partial curve, poor fit]
CCC(=O)Nc1cc2nn(-c3ccc(C)cc3)nc2cc1C | inactive
O=C(c1ccc2c(c1)[nH]c(=S)n1c3ccccc3nc21)N1CCN(c2ncccn2)CC1 | inconclusive [activator, partial curve, poor fit]
Cc1ccc(-c2nn(-c3ccccc3)cc2/C=N/NC(=O)CSc2nnc(C)n2-c2ccccc2)cc1 | inconclusive [activator, partial curve, poor fit]
CC(=O)N1CCC(C(=O)NC2CCCc3c2cnn3-c2cc(F)cc(F)c2)CC1 (stereo not given) | inactive
Cc1ccc(O)c(NC(=O)c2cc(-c3cccs3)on2)c1 | inconclusive [activator, partial curve, poor fit]
CN(C)N(Cc1ccccc1)C(=O)C(O)(c1ccccc1)c1ccccc1 | inconclusive [activator, single point]
CC(C)(C)c1ccc(-c2nc(NCc3cccnc3)c3ccccc3n2)cc1 | inconclusive [activator, partial curve, poor fit]
N#Cc1nc(COc2ccccc2F)oc1NCCCn1ccnc1 | inconclusive [activator, single point]
O=C(Nc1ccc(Cl)cc1)OCc1cn(-c2ccc(Cl)cc2)nn1 | inactive
CC(C)c1cc(C(N)=O)c(NC(=O)c2cccc(COc3ccc(Cl)cc3)c2)s1 | inconclusive [activator, partial curve, poor fit]
Nn1c(SCC(=O)NC2CCCCCC2)nnc1C(F)(F)F | inactive
CCCc1nnc(NC(=O)NCCN2C(=O)C3C4C=CC(C4)C3C2=O)s1 (stereo not given) | inconclusive [activator, full curve, poor fit]
COc1cc(C(=S)N2CCCC2)ccc1OCC(N)=O | inconclusive [activator, single point]
O=C(Nc1ccccc1)Nc1ccc(Br)cc1F | inconclusive [activator, partial curve, poor fit]
c1ccc(C2=NN(c3ccccc3)CC2)cc1 | inconclusive [activator, full curve, poor fit]
Cc1ccc(NC(=O)COC(=O)c2ccc(NC(=O)CC#N)cc2)cc1S(=O)(=O)N1CCOCC1 | inactive

SMILES | Potency
Cc1cc(Nc2ccccc2)nc2cc(O)ccc12 | inconclusive [activator, single point]
COc1ccccc1CNC(=O)CSc1ccsc1[N+](=O)[O-] | inconclusive [activator, partial curve, poor fit]
Cc1ccc2cc(-c3noc(C(C)(C)C)n3)c(=O)[nH]c2c1 | inactive
Cc1ccc(S(=O)(=O)CC(=O)c2ccccc2)cc1 | inconclusive [activator, single point]
N/C(Cc1ccc(Cl)cc1Cl)=N\OC(=O)Cc1cccs1 | inconclusive [activator, partial curve, poor fit]
COc1ccc(Br)c(C(=O)OCC(=O)NC2CCCCCC2)c1 | inconclusive [activator, single point]
CC1C2CC(C/C2=N/NC(=O)c2cccs2)C1(C)C (stereo not given) | inconclusive [activator, partial curve, poor fit]
Nn1c(SCC(=O)Nc2ccc(F)cc2F)nnc1-c1cccnc1 | inconclusive [activator, single point]
FC(F)C(F)(F)c1cc(-c2ccc(Cl)cc2)n[nH]1 | inconclusive [activator, partial curve, poor fit]
CN(CC(=O)Nc1ccc(Cl)c(C(F)(F)F)c1)CC(=O)NC1CCCCC1 | inactive
Cn1c(NC(=O)/C=C/c2ccco2)cc(=O)n(C)c1=O | inconclusive [activator, single point]
CCCCc1ccc(NC(=O)Nc2cnccn2)cc1 | inactive
CN(C)C(=O)c1cccn1-c1ncc(C(F)(F)F)cc1Cl | inconclusive [activator, single point]
O=C(CN1C(=O)S/C(=C\c2ccccc2Cl)C1=O)NCCCn1ccnc1 | inactive
O=c1[nH]c(/C=C/c2cccc3ccccc23)nc2ccccc12 | inactive
COc1ccc2c(c1)OC[C@H]1[C@H]2N2C(=O)c3cc(Cl)ccc3NC(=O)[C@@]2(C)[C@H]1c1ccccc1 | inactive
CCCc1c(C)c2ccc(OCC(C)=O)cc2oc1=O | inconclusive [activator, full curve, poor fit]
NS(=O)(=O)c1ccc(NC(=O)CSc2nc3c(cnn3-c3ccccn3)c(=O)[nH]2)cc1 | inactive
Cc1ccccc1Nc1c(-c2ccccn2)nc2ccccn12 | inconclusive [activator, full curve]
O=C(/C=C/c1ccccc1)Oc1cccc(C(=S)N2CCOCC2)c1 | inactive
C/C(=N\Nc1nc2c(s1)CCCC2)c1ccc(Cl)cc1 | inactive
Cc1ccc(N2C(=O)c3ccc(N)cc3C2=O)cc1 | inconclusive [activator, partial curve, poor fit]
